The other results are listed elsewhere or left out. Values were computed here from the reads of four pooled replicates and scatter widely.
Each sequence was assayed against T1, Pho4 (S. cerevisiae) (UniProt P07270) (assay: relative binding free energy (BET-seq); higher = weaker binding). Conditions: reference: library average.
T1 sequence: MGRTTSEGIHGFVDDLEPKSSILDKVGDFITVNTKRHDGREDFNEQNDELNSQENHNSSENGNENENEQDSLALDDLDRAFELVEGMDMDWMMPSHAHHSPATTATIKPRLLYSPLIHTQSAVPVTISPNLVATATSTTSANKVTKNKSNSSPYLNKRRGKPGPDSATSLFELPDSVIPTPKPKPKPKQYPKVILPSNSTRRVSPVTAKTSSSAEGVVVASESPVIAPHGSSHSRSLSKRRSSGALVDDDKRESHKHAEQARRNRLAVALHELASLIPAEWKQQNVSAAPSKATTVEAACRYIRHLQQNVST

| Sequence | relative binding free energy [kcal/mol] |
| --- | --- |
| TTGACCACGTGGTAGG | -0.06 |
| GGTAACACGTGTTTGA | -0.02 |
| TTTCTCACGTGGTGTG | 0.11 |
| TGAGGCACGTGGGAAA | -0.07 |
| TATAGCACGTGTGGCT | -0.04 |
| AAGTGCACGTGGGGCA | -0.22 |
| AGGAGCACGTGGCTGT | -0.2 |
| TGGGACACGTGTGCTG | 0.01 |
| TACATCACGTGTGGTT | 0.21 |
| ATGGTCACGTGTTCTT | 0.23 |
| TGGGACACGTGTTTTA | 0.01 |
| CGTCTCACGTGTCGGG | 0.32 |
| TGGGACACGTGTGCAT | 0.1 |
| CTTTTCACGTGAGGGA | 0.24 |
| TTTTTCACGTGGGTCT | 0.13 |
| TGTGGCACGTGAGAGT | 0.18 |
| TATTGCACGTGTGCTA | -0.05 |
| GTCAGCACGTGGGTAA | -0.04 |
| AGCGTCACGTGAAGGT | 0.18 |
| TGGCGCACGTGAAGAT | 0.19 |
| GGATACACGTGTGTAG | -0.01 |
| CTTGACACGTGGGTAA | -0.08 |
| ACGGGCACGTGGGACG | -0.24 |
| GGAGCCACGTGGGGTT | -0.31 |
| TGCTACACGTGCGTGG | -0.03 |

| Sequence | relative binding free energy [kcal/mol] |
| --- | --- |
| AGTTACACGTGTCTTA | 0.21 |
| CGTGACACGTGGTGTT | -0.07 |
| GTGGCCACGTGTTGAA | -0.01 |
| AGTATCACGTGATGGG | 0.19 |
| CGTGGCACGTGTGATG | -0.02 |
| GGGTGCACGTGCTTAA | 0.04 |
| ATGGGCACGTGGGAAG | -0.15 |
| TTGATCACGTGGTCGA | 0.13 |
| GTCGTCACGTGGTCGG | 0.03 |
| TATGACACGTGGGTGA | -0.11 |
| TTATGCACGTGGATAA | -0.07 |
| GTTGGCACGTGGGAAC | -0.01 |
| TGGTGCACGTGTGAGC | 0 |
| TTAGGCACGTGCGCGG | -0.16 |
| TGGGCCACGTGTGAAG | -0.01 |
| GGATTCACGTGGGGGG | 0.14 |
| CGGATCACGTGTAGGG | 0.21 |
| TGGTTCACGTGGGGAC | 0.19 |
| TTTAGCACGTGTGGGA | -0.09 |
| TTATTCACGTGCGGGG | 0.23 |
| CTTGGCACGTGTAGAT | 0.1 |
| TTGAGCACGTGGAGTA | -0.09 |
| GTGGGCACGTGCATGT | -0.08 |
| CGTTACACGTGGGATG | -0.11 |
| ATGTTCACGTGTTATG | 0.32 |

| Sequence | relative binding free energy [kcal/mol] |
| --- | --- |
| TGAGACACGTGGGACG | -0.09 |
| CGCAGCACGTGGGTGT | -0.39 |
| CGTTTCACGTGTACGT | 0.18 |
| TTGTTCACGTGGAGTC | 0.4 |
| GAGTACACGTGTGCGG | 0.15 |
| GTTAACACGTGGGCTG | -0.08 |
| TCGGTCACGTGGCGGG | 0.1 |
| GATATCACGTGAAGGT | 0.39 |
| GCAGGCACGTGGTGGA | -0.13 |
| TGGATCACGTGACTGG | 0.28 |
| TGGAGCACGTGGGGAT | -0.15 |
| AGTTTCACGTGGGGTA | 0.08 |
| TGGCACACGTGGCGTG | -0.08 |
| TCATGCACGTGGGCTT | -0.17 |
| GATTTCACGTGGGATT | 0.34 |
| GTGGTCACGTGGAATC | 0.25 |
| TGAGTCACGTGGGAAA | -0.02 |
| AGTGACACGTGCAGGA | 0.06 |
| GAGTTCACGTGTAGTC | 0.48 |
| TAATGCACGTGTTATT | 0.04 |
| ACAGTCACGTGTTTGG | -0.13 |
| CAGATCACGTGTTGGT | 0.11 |
| ATGAGCACGTGTTTGG | -0.06 |
| AGCATCACGTGTTATG | 0.18 |
| GGTGTCACGTGGGACT | 0.05 |

| Sequence | relative binding free energy [kcal/mol] |
| --- | --- |
| TGCAGCACGTGTGTCG | 0 |
| TGGGACACGTGTAGGA | 0.1 |
| TCATTCACGTGGGGTC | -0.01 |
| TTGAACACGTGTTAAG | 0.08 |
| ATATGCACGTGGTGCA | -0.1 |
| AAATTCACGTGGATAT | 0.33 |
| ACGTGCACGTGCGGGG | -0.11 |
| TGGGACACGTGCTATG | -0.06 |
| TGAAGCACGTGGATTT | 0.06 |
| AGATACACGTGGGATG | -0.03 |
| TGTATCACGTGGATAG | 0.16 |
| ATTTTCACGTGTTTCT | 0.22 |
| AGTATCACGTGTGGAT | 0.19 |
| GTAATCACGTGTCGTG | 0.17 |
| TACTGCACGTGATGTT | 0.04 |
| TATGCCACGTGAGGGA | 0.1 |
| TATTACACGTGTCGTT | 0.07 |
| AGAAGCACGTGAGAGG | 0.13 |
| AGGGTCACGTGGTGTC | 0.07 |
| ATAGACACGTGAAGGT | 0.2 |
| TTGTACACGTGATGCA | 0.07 |
| TCGTTCACGTGTATCT | 0.36 |
| TTGGACACGTGTTGAA | 0.11 |
| GAGGTCACGTGTACGT | 0.2 |
| GTGTGCACGTGATTAT | 0.13 |

| Sequence | relative binding free energy [kcal/mol] |
| --- | --- |
| ATTAACACGTGGATGT | -0.1 |
| AGCATCACGTGGTTGT | 0.08 |
| GTTAACACGTGAATTT | 0.31 |
| TGTGGCACGTGGATCG | -0.17 |
| GAGGCCACGTGTCGGT | 0.1 |
| GAAGTCACGTGCTTTG | 0.07 |
| TACATCACGTGGGTGT | -0.03 |
| TGTAACACGTGGCTGT | -0.12 |
| ACAGGCACGTGAGGGT | 0.12 |
| TGGGGCACGTGTTGGA | 0 |
| TTGAGCACGTGGCTTT | -0.16 |
| GGGGACACGTGGAATG | 0.02 |
| GCGCGCACGTGAGGTG | 0.12 |
| GGGTTCACGTGGCAAA | 0.34 |
| GAGAGCACGTGGTGGC | -0.12 |
| TGCGACACGTGTAGTT | 0.05 |
| TCGTACACGTGTGATG | 0.18 |
| GGTAGCACGTGATTGG | 0.07 |
| GTTTGCACGTGTCCGA | 0.11 |
| TTGGACACGTGTAATG | 0.14 |
| GGGGGCACGTGGTCAT | -0.22 |
| ATTGGCACGTGTTTTT | -0.17 |
| AGGGACACGTGTGTCG | 0 |
| ATTATCACGTGTTGAT | 0.2 |
| ATGGGCACGTGGGGTC | -0.22 |

| Sequence | relative binding free energy [kcal/mol] |
| --- | --- |
| TGTTGCACGTGTTTAC | -0.07 |
| CTTGGCACGTGGCGTA | -0.29 |
| CGGAGCACGTGATGTG | 0.02 |
| ATGTACACGTGCAGGT | -0.05 |
| TGGATCACGTGTAGGT | 0.19 |
| AATGGCACGTGGATAT | -0.07 |
| GTGTACACGTGATTTA | 0.08 |
| GTTATCACGTGTGTCA | 0.13 |
| ATGGGCACGTGGCTTG | -0.34 |
| TTTCTCACGTGGGCGT | 0.14 |
| TTAGACACGTGAGAGG | 0.19 |
| TCCTTCACGTGGTTGG | 0.13 |
| GATATCACGTGTCTTG | 0.28 |
| GTCATCACGTGTAGGG | 0.13 |
| AGGCACACGTGGTGTA | -0.03 |
| TTGTCCACGTGGTGTC | -0.04 |
| GGTGGCACGTGGCCGC | -0.11 |
| CGGTGCACGTGACATG | 0.15 |
| AATAGCACGTGGTAGA | -0.15 |
| CTTTACACGTGTTATT | 0.12 |
| TATTGCACGTGAAAAT | 0.2 |
